From the supplement of paper PMC12217912
The list shows a part of the results. The full chains were built here from the parent and the listed change. Values near 0.05 are background.

B1: TEV protease; numbered along this chain (parent)
chain: MGESLFKGPRDYNPISSSICHLTNESDGHTTSLYGIGFGPFIITNKHLFRRNNGTLVVQSLHGVFKVKDTTTLQQHLVDGRDMIIIRMPKDFPPFPQKLKFREPQREERICLVTTNFQTKSMSSMVSDTSCTFPSGDGIFWKHWIQTKDGQCGSPLVSTRDGFIVGIHSASNFTNTNNYFTSVPKNFMELLTNQEAQQWVSGWRLNADSVLWGGHKVFMVKPEEPFQPVKEATQL

Variants of: B1
Assay: raw area under fraction-flipped curve 0-4 h after induction (AUC4h, not background-subtracted), DNA-recorder readout of cleavage of the substrate (dimensionless); higher = more cleavage of the substrate by the protease variant
Details: temperature: 34 °C; time window: 0-4 h after rhamnose induction
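Further: Bxb1 expression induced with 0.2% (w/v) L-rhamnose at OD600 near 0.5, cultures sampled hourly, flipped fraction per protease–substrate barcode pair counted by paired-end Illumina sequencing.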

| Variant | area with substrate ENLYEQS | area with substrate ENLYHQS | area with substrate ENLYIQS | area with substrate ENLYPQS | area with substrate ENLYQQS | area with substrate ENLYWQS | area with substrate ENLYYQS | area with substrate ENLYGQS | area with substrate ENLYKQS | area with substrate ENLYRQS | area with substrate ENLYSQS | area with substrate ENLYTQS | area with substrate ENLYVQS | area with substrate ENLYNQS | area with substrate ENLYLQS | area with substrate ENLYMQS |
| --- | --- | --- | --- | --- | --- | --- | --- | --- | --- | --- | --- | --- | --- | --- | --- | --- |
| MGESLFKGPRDYNPISSSICHLTNESDGHTTSLYGIGFGPFIITNKHLFRRNNGTLVVQSLHGVFKVKDCTTLQQHLVDGRDMIIIRMPKDFPPFPQKLKFREPQREERICLVTTNFQTKSMSSMVSDTSCTFPSGDGIFWKHWIQTKDGQCGSPLVSTRDGFIVGIHSASNFTNTNNYFTSVPKNFMELLTNQEAQQWVSGWRLNADSVLWGGHKVFMVKPEEPFQPVKEATQL [T70C] | 0.0688 | 0.0769 | 0.1 | 0.0796 | 0.0614 | 0.0704 | 0.0946 | – | – | – | – | – | – | – | – | – |
| MGESLFKGPRDYNPISSSICHLTNESDGHTTSLYGIGFGPFIITNKHLFRRNNGTLVVQSLHGVFKVKDTTTLQQHLVDGRDMIIIRMGKDFPPFPQKLKFREPQREERICLVTTNFQTKSMSSMVSDTSCTFPSGDGIFWKHWIQTKDGQCGSPLVSTRDGFIVGIHSASNFTNTNNYFTSVPKNFMELLTNQEAQQWVSGWRLNADSVLWGGHKVFMVKPEEPFQPVKEATQL [P89G] | 0.0715 | 0.0719 | – | – | – | 0.0729 | 0.056 | 0.0646 | 0.0301 | 0.05 | 0.076 | 0.0789 | 0.115 | – | – | – |
| MGESLFKGPRDYNPISSSICHLTNESDGHMTSLYGIGFGPFIITNKHLFRRNNGTLVVQSLHGVFKVKDTTTLQQHLVDGRDMIIIRMPKDFPPFPQKLKFREPQREERICLVTTNFQTKSMSSMVSDTSCTFPSGDGIFWKHWIQTKDGQCGSPLVSTRDGFIVGIHSASNFTNTNNYFTSVPKNFMELLTNQEAQQWVSGWRLNADSVLWGGHKVFMVKPEEPFQPVKEATQL [T30M] | 0.0647 | 0.0687 | – | 0.0394 | – | 0.0985 | – | – | 0.0496 | – | 0.099 | 0.0709 | – | 0.0532 | – | – |
| MGESLFCGPRDYNPISSSICHLTNESDGHTTSLYGIGFGPFIITNKHLFRRNNGTLVVQSLHGVFKVKDTTTLQQHLVDGRDMIIIRMPKDFPPFPQKLKFREPQREERICLVTTNFQTKSMSSMVSDTSCTFPSGDGIFWKHWIQTKDGQCGSPLVSTRDGFIVGIHSASNFTNTNNYFTSVPKNFMELLTNQEAQQWVSGWRLNADSVLWGGHKVFMVKPEEPFQPVKEATQL [K7C] | 0.0625 | 0.0769 | 0.0848 | – | 0.067 | – | – | – | 0.0562 | 0.0603 | – | – | – | 0.0843 | 0.0795 | 0.0814 |
| MGESLFKGPRDYNPISSSICHLTNESDGHTTSLYGIGFGPFIITNKHLFRRNNGRLVVQSLHGVFKVKDTTTLQQHLVDGRDMIIIRMPKDFPPFPQKLKFREPQREERICLVTTNFQTKSMSSMVSDTSCTFPSGDGIFWKHWIQTKDGQCGSPLVSTRDGFIVGIHSASNFTNTNNYFTSVPKNFMELLTNQEAQQWVSGWRLNADSVLWGGHKVFMVKPEEPFQPVKEATQL [T55R] | 0.0592 | 0.0594 | – | 0.0454 | 0.0447 | 0.0818 | – | – | 0.0436 | 0.0615 | 0.0776 | – | 0.0846 | 0.0868 | 0.0819 | 0.0934 |
| MGESLFKGSRDYNPISSSICHLTNESDGHTTSLYGIGFGPFIITNKHLFRRNNGTLVVQSLHGVFKVKDTTTLQQHLVDGRDMIIIRMPKDFPPFPQKLKFREPQREERICLVTTNFQTKSMSSMVSDTSCTFPSGDGIFWKHWIQTKDGQCGSPLVSTRDGFIVGIHSASNFTNTNNYFTSVPKNFMELLTNQEAQQWVSGWRLNADSVLWGGHKVFMVKPEEPFQPVKEATQL [P9S] | 0.0669 | 0.0769 | – | 0.0696 | – | 0.111 | 0.0647 | 0.0671 | 0.0622 | 0.0709 | – | 0.0678 | – | 0.071 | – | 0.0929 |
| MGESLFKGPRDYNPISSSICHLTNESDGHTTSLYGIGFGPFIITNKHLFRRNNGTLVVQSLHGVFKVKDTTTLQQHLVDGRDMIIIRMPKDFPPFPQKLKFREPQREERICLVTTNFQTKSMSSMVSDTSCTFPSGDGIFLKHWIQTKDGQCGSPLVSTRDGFIVGIHSASNFTNTNNYFTSVPKNFMELLTNQEAQQWVSGWRLNADSVLWGGHKVFMVKPEEPFQPVKEATQL [W141L] | 0.0409 | 0.0751 | – | 0.0469 | – | – | 0.0492 | – | 0.0516 | – | – | – | 0.053 | 0.0614 | 0.0546 | 0.0368 |
| MGESLFKGPRDYNPISSSICHLTNESDGHTTSLYGIGFGPFIITNKHLFRRNNGTLVVQSLHGVFKVKDTTMLQQHLVDGRDMIIIRMPKDFPPFPQKLKFREPQREERICLVTTNFQTKSMSSMVSDTSCTFPSGDGIFWKHWIQTKDGQCGSPLVSTRDGFIVGIHSASNFTNTNNYFTSVPKNFMELLTNQEAQQWVSGWRLNADSVLWGGHKVFMVKPEEPFQPVKEATQL [T72M] | 0.072 | 0.0715 | – | 0.0978 | 0.0415 | – | – | 0.0563 | 0.0223 | – | – | – | – | – | 0.0886 | 0.0479 |
| MGESLFKGTRDYNPISSSICHLTNESDGHTTSLYGIGFGPFIITNKHLFRRNNGTLVVQSLHGVFKVKDTTTLQQHLVDGRDMIIIRMPKDFPPFPQKLKFREPQREERICLVTTNFQTKSMSSMVSDTSCTFPSGDGIFWKHWIQTKDGQCGSPLVSTRDGFIVGIHSASNFTNTNNYFTSVPKNFMELLTNQEAQQWVSGWRLNADSVLWGGHKVFMVKPEEPFQPVKEATQL [P9T] | 0.062 | – | – | 0.0801 | – | – | 0.0347 | – | 0.0654 | – | 0.0983 | – | – | 0.0663 | – | – |
